172 sequences from PMC6212790 can be followed below.

The other results are listed elsewhere or left out. At the low end of the ranking the order means little.

This experiment addresses T1, GST-Rok (full length) (UniProt O34857).
T1 sequence: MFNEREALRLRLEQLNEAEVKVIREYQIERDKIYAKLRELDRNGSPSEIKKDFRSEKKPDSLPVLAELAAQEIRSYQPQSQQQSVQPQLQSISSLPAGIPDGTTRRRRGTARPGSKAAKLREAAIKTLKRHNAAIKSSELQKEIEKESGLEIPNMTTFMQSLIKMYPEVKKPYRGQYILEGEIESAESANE
The experiment in a line: protein binding microarray.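 Further: rank score from −0.5 (least bound) to 0.5 (best bound).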 Conditions: Rok is a gene silencer of Bacillus subtilis; high values mean tight binding; most listed sequences are background and not binding sites; double strand, one strand shown.
As for AGACTCCC, the binding signal is -0.346 E-score.
In the case of ATTACCCG it was -0.0215 E-score.
Regarding TACAGCGA, the binding signal stood at 0.0967 E-score.
The sequence ATTGACCA had a binding signal of 0.138 E-score.
In the case of ACGACTTA it was 0.132 E-score; in that of CAGACGGA, -0.175 E-score; in that of CGGAAGCC, -0.359 E-score.
CTGTCCCA yielded a binding signal of -0.115 E-score.
In the case of ATGTTACG it was 0.167 E-score.
The value for CAGTCTTC was -0.0238 E-score; that for ATGGCGTC was -0.204 E-score; that for GCAGTCAC was 0.0327 E-score.
The value for CTACAAGC was 0.195 E-score; that for ATGAGTGC was 0.0571 E-score; that for AAAGGCTT was -0.31 E-score.
ATGCCTAC: the binding signal is 0.131 E-score.
In the case of AGGCTCGG it was -0.353 E-score.
GCTGAGCC returned a binding signal of -0.159 E-score.
Sequence AGTATGTG had a binding signal of 0.249 E-score.
Take ACACGGTC: the binding signal is -0.222 E-score.
The sequence AAGAAACC returned a binding signal of -0.0246 E-score.
The value for AAACTCTA was 0.186 E-score.
In the case of GACCTTTA it was -0.0808 E-score; in that of TCAGCTAA, 0.0254 E-score; in that of AGAAGTCG, -0.0803 E-score.
Consider ATGGAGAA, for which the binding signal is 0.111 E-score.
Regarding GGGACTCA, the binding signal is -0.275 E-score.
The value for CGCGAGAC was -0.109 E-score; that for GCCGGCTA was -0.265 E-score; that for CCGAGGGA was -0.143 E-score.
Regarding ACGCCCAA, the binding signal was -0.176 E-score.
On to ATGGGGTC, for which the binding signal is -0.3 E-score.
In the case of CTTTACAA it was 0.143 E-score; in that of AGATACCT, 0.136 E-score.
The value for ATTGAAAC was 0.0308 E-score.
In the case of ATCAACGA it was 0.0269 E-score; in that of ATTAGGGG, -0.305 E-score; in that of ACTTTTCA, 0.00763 E-score.
As for ACGCACAT, the binding signal amounted to 0.176 E-score.
In the case of CGTTAGGA it was -0.0421 E-score.
In the case of AATCTGAT it was 0.0468 E-score; in that of GTATGACA, 0.0326 E-score.
The value for CCATTTCA was 0.0264 E-score; that for CAAGGACC was -0.218 E-score.
In the case of AATCACAA, the binding signal is 0.217 E-score.
The value for AAACATTG was 0.0309 E-score; that for ACTTCCGA was 0.0719 E-score.
The value for AGAGACAC was 0.0712 E-score; that for GCAGTAAC was 0.138 E-score; that for AGAGCGTG was -0.0184 E-score.
The value for CAGCGGCC was -0.386 E-score; that for GTAGTTGA was 0.241 E-score; that for CCGCAATA was 0.0972 E-score.
For AACGGAAA, the binding signal came out at 0.0411 E-score.
In the case of ACTCTAAG it was -0.163 E-score; in that of CAAATTCC, -0.0577 E-score; in that of ACATTCAC, 0.0736 E-score.
In the case of TCAGCGAA it was -0.0379 E-score; in that of GCCACTAC, 0.00905 E-score; in that of AGCTTTAC, 0.0967 E-score.
In the case of GCTTGTCA it was -0.156 E-score.
On to ATTAGGTA, for which the binding signal came to 0.247 E-score.
The value for ACGTCAAG was 0.0301 E-score; that for CGGTCCCC was -0.437 E-score; that for GAAGAGCC was -0.299 E-score.
The value for GAAAAGCA was -0.119 E-score; that for GCAAGTCA was -0.0021 E-score.
In the case of ACAGCTGA it was 0.0846 E-score.
Take AAGCTCTA: the binding signal was -0.0144 E-score.
In the case of GTTCGGCA it was 0.0176 E-score.
The value for CCTCCCCA was -0.376 E-score; that for ACCTATAG was 0.308 E-score; that for ATGCTTTC was 0.0521 E-score.
The value for AAACACTA was 0.183 E-score; that for GCACTGCA was -0.00139 E-score.
The sequence AATGGGTC displayed a binding signal of -0.0106 E-score.
In the case of ATTTGGAC it was -0.0914 E-score; in that of ATAGTTTG, 0.364 E-score.
For the sequence GTTCAAAA, the binding signal came to 0.0113 E-score.
In the case of GCCAGGGA it was -0.302 E-score; in that of CGGCAACA, -0.0449 E-score.
Sequence CAGATGCG returned a binding signal of -0.144 E-score.
The value for TATAGAGA was 0.103 E-score; that for ATTTCAAG was 0.0903 E-score.
In the case of GAAAAATC it was 0.00856 E-score; in that of ATAATGGA, 0.205 E-score.
The value for CATATCGG was 0.0529 E-score.
The sequence AGCATTTC gave a binding signal of -0.102 E-score.
In the case of CAGAAGGA it was -0.293 E-score; in that of CGCTCTAC, -0.0836 E-score; in that of CATCAGGC, -0.154 E-score.
The sequence AGATACCG returned a binding signal of 0.12 E-score.
In the case of AATTGGCC it was -0.129 E-score.
In the case of ACCCAACT it was 0.216 E-score; in that of CGCGAGAG, -0.176 E-score; in that of CGCGTGCA, -0.0714 E-score.
The value for AATAGAAT was 0.329 E-score.
The sequence GCTCCGAA returned a binding signal of -0.117 E-score.
In the case of CCGAGAGA it was -0.0914 E-score.
The value for AAGCTATC was 0.218 E-score; that for AGACAGCG was -0.0894 E-score; that for GGACGCCA was -0.256 E-score.
The value for CCACAGCG was -0.201 E-score; that for ATCGCTGC was 0.0638 E-score.
Regarding CCCCAGAA, the binding signal was -0.332 E-score.
In the case of CCTTCAGA it was -0.26 E-score.
In the case of ACATCTGA it was 0.222 E-score; in that of CTAACCAG, 0.0172 E-score; in that of TGCCCGCA, -0.121 E-score.
The value for ACTAACCA was 0.146 E-score; that for CAAGCTCC was -0.27 E-score; that for ATCCTCAC was -0.126 E-score.
ACTCTACA displayed a binding signal of 0.145 E-score.
In the case of AGCGACGG it was -0.171 E-score; in that of GCGAGTGA, -0.0766 E-score.
The value for ATACATAC was 0.372 E-score.
The value for CAATGAAC was 0.0385 E-score.
GACCAGAA: the binding signal is -0.0532 E-score.
The value for GAGCCCCA was -0.397 E-score; that for CGCCGGAG was -0.106 E-score.
The value for CGATCCAA was -0.207 E-score.
In the case of CGCCCAAG it was -0.175 E-score; in that of CTGTAGTC, 0.175 E-score.
In turn, GCATCGAC showed a binding signal of 0.0744 E-score.
The value for CAAAGTAC was 0.0729 E-score; that for AACAGGGC was -0.232 E-score.
In the case of CCATTGAC it was 0.0877 E-score; in that of ATCCGAAT, 0.0501 E-score; in that of CGCTGGGC, -0.321 E-score.
The value for ATATAATA was 0.452 E-score.
Regarding AGATGGAA, the binding signal is -0.226 E-score.
In the case of CCGCCTGA it was -0.198 E-score.
The value for ACGGGCTG was -0.1 E-score; that for GACGCGCA was -0.296 E-score.
The value for TAAGCCTA was -0.0764 E-score.
CATCTTAC showed a binding signal of 0.132 E-score.
In the case of CGTTAGAA it was -0.0404 E-score; in that of CAGGTAAC, 0.0478 E-score; in that of GGAATTAA, 0.111 E-score.
For ACTGTATG, the binding signal was 0.101 E-score.
The value for AGAGAAGG was -0.335 E-score.
The value for GAGAGTGA was -0.188 E-score.
The sequence CTCTAACA returned a binding signal of 0.00593 E-score.
In the case of ACGGAGAT it was 0.158 E-score; in that of CAGATTAC, -0.0215 E-score; in that of CACAGTTC, 0.112 E-score.
In the case of CCGTGCCA it was -0.232 E-score.
The value for CTCAGGAA was -0.0328 E-score; that for ATTTATCC was 0.156 E-score; that for ATCCAAAC was 0.00735 E-score.
CTACCGAA returned a binding signal of 0.231 E-score.
CCGCCCAG had a binding signal of -0.271 E-score.
The value for AAGGCTTG was -0.235 E-score.
In turn, ACTTGGGC yielded a binding signal of -0.191 E-score.
With AGTTCCAA, the binding signal is -0.0894 E-score.
The value for AATGTGCT was 0.205 E-score.
The value for TACAGGAA was 0.133 E-score; that for CGCAGAGA was -0.228 E-score.
On to GAGTACTC, for which the binding signal is -0.117 E-score.
The value for AGGGCGAT was -0.22 E-score.
On to AGACGCCC, for which the binding signal was -0.302 E-score.
On to AACTCTCA, for which the binding signal was 0.153 E-score.
The value for CGCATTTA was 0.177 E-score.
In the case of AAGCAAGT it was 0.0333 E-score; in that of AATAATGG, 0.103 E-score; in that of TCTGTCCA, -0.0557 E-score.
The value for ATTGACGG was -0.0146 E-score; that for ATGGAACC was -0.105 E-score; that for ACGAGTGG was -0.0627 E-score.
For the sequence GACGACAC, the binding signal was -0.185 E-score.
In the case of ATTATCGA it was 0.262 E-score.
The value for ATAAAAAT was 0.171 E-score.
